This test has as its target T1, full length FLAG-CFTR (WT-CFTR) (UniProt P13569 1-1480).
T1 construct: Cystic Fibrosis transmembrane-conductance regulator (CFTR), wild type, 1,480 amino acids; Surface CFTR was probed with anti-FLAG on fixed cells, so the FLAG tag may lie in an extracellular loop; also called FLAG-WT-CFTR; Cystic Fibrosis transmembrane-conductance regulator; source: HEK293 cells stably expressing it; purified on anti-FLAG resin (ProtoArray) or in whole-cell lysate (co-IP)
Description: peptide or protein array; ProtoArray protein microarray (Invitrogen / ThermoFisher) probed with purified full length FLAG-CFTR in solution; bound CFTR detected with mouse anti-FLAG monoclonal antibody and Alexa-488 secondary antibody, fluorescence scanner; mean of duplicate. Conditions: both partners purified.

B1: DNAJB1 (on the ProtoArray) (natural protein)
chain: MGKDYYQTLGLARGASDEEIKRAYRRQALRYHPDKNKEPGAEEKFKEIAEAYDVLSDPRKREIFDRYGEEGLKGSGPSGGSGGGANGTSFSYTFHGDPHAMFAEFFGGRNPFDTFFGQRNGEEGMDIDDPFSGFPMGMGGFTNVNFGRSRSAQEPARKKQ[sequence of about 150 residues not given]PERIPQTSRTVLEQVLPI
notes: DNAJB1, protein spotted on the ProtoArray; source: bought: spotted on ProtoArray protein microarray (Invitrogen / ThermoFisher)
As to B1, the binding result is listed as “binds”.

Source of the values: PMC6614449, “Targeting DNAJB9, a novel ER luminal co-chaperone, to rescue ΔF508-CFTR” (Scientific Reports, 2019).
